The whole screen tested about 420,000 compounds, of which about 64,000 (15%) were called active. Inconclusive means that the source gave no clear call. Such entries were picked first, then a sample of the others. The call rests on the fitted dose curve; in most records, active means well fitted inhibition curve with a large enough effect; inconclusive means small, poorly fitted or top-dose-only effect; inactive means flat fitted curve, though single readings scatter. Potencies of inconclusive entries are left out as doubtful fits.
Assay: qHTS for Inhibitors of human tyrosyl-DNA phosphodiesterase 1 (TDP1): qHTS in cells in absence of CPT; further: nearly all actives have a fitted effect of over 55% in size
Conditions: DT40 Tdp1-/- hTDP1 cells, no CPT, ATP luminescence, 48 h; activity change, negative = growth inhibition: at 46.2 µM (top of the series) unless noted
Outline: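 Luminescent ATP content (CellTiter-Glo) served as the growth readout. Knockout chicken DT40 cells expressing human TDP1 were exposed to compounds without camptothecin for a minimum 48 hr at 37 °C.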
With `CCOC(=O)[C@]12CCCC=C1N(Cc1ccco1)C(=O)[C@H](CC(=O)N1CCCCC1)C2` the Potency was inconclusive [inhibitor, partial curve]. For `Cc1cccc(C)c1OCC(=O)N(Cc1ccc(Cl)cc1)CC1CCCO1` (stereo not drawn), the Potency was inconclusive [inhibitor, single point]. With `C[C@H](NC(=O)c1nc[nH]c1C(=O)NCC(=O)OCc1ccccc1)C(=O)OC(C)(C)C` the “activity change, negative = growth inhibition” value was inactive: -28.3%. For `O=C(C(=O)N1CCN(c2cccc(Cl)c2)CC1)c1c[nH]c2ccccc12`, the Potency was inconclusive [inhibitor, single point]. With `CCOc1ccc(N(CC(=O)NC2CCCCC2)C(=O)CCC(=O)Nc2cc(C)ccn2)cc1` the Potency was inconclusive [inhibitor, single point]. With `Cc1ccc(S(=O)(=O)CCc2nc3ccccc3s2)cc1` the Potency was inconclusive [inhibitor, full curve, poor fit]. For `CCN1C(=O)[C@@H]2[C@@H](c3ccc(-c4ccc(Cl)c(Cl)c4)c(OC)c3)N3CCC[C@@]3(C(=O)OC)[C@@H]2C1=O`, the Potency was active: 9.2 µM. In the case of `CCCN(Cc1cccs1)C(=O)Nc1ccccc1C`, the Potency is reported as inconclusive [inhibitor, single point]. With `O=C(CN1CCN(S(=O)(=O)c2ccc(Br)cc2)CC1)Nc1ccc(F)cc1F` the Potency was inconclusive [inhibitor, full curve]. With `COc1cccc(-n2c(SCC(=O)N3CCc4ccccc43)nnc2-c2c[nH]c3ccccc23)c1` the Potency was active: 23.1 µM. With `COc1ccccc1CNC(=O)CN1CCN(c2ccc(C(C)=O)cc2)CC1` the activity change, negative = growth inhibition was inconclusive: -34.5% [inhibitor]. In the case of `Cc1cc([N+](=O)[O-])nn1CC(=O)N/N=C/c1ccccc1Br`, the “activity change, negative = growth inhibition” value is reported as inactive: -16.1%. In the case of `CCCOc1ncnc2c1sc1nc3c(cc12)COC(C)(C)C3`, the Potency is reported as inconclusive [inhibitor, single point]. For `CCCOc1ccc(/C=C/C(=O)OCC(=O)N(C)c2c(N)n(Cc3ccccc3)c(=O)[nH]c2=O)cc1OCC`, the Potency was active: 16.4 µM. In the case of `CC(C)n1nc(C(=O)Oc2cccc(Cl)c2Cl)c2ccccc2c1=O`, the Potency is reported as inconclusive [inhibitor, single point]. With `CC(=O)N1CCN(S(=O)(=O)c2cccc(C(=O)Nc3ccccc3N3CCOCC3)c2)CC1` the “activity change, negative = growth inhibition” value was inactive: -24.9%. With `CCCOc1ccc(N2C(=O)CC(N3CCN(CCN=CC4C(=O)CC(C)(C)CC4=O)CC3)C2=O)cc1` (stereo not drawn) the “activity change, negative = growth inhibition” value was inactive: 14.8%. With `Cc1cc(C)nc(SCc2csc(-c3ccccc3)n2)n1` the Potency was inconclusive [inhibitor, partial curve]. With `Cn1c(=O)c2c(nc(NCCc3ccccc3)n2Cc2ccc(Cl)c(Cl)c2)n(C)c1=O` the Potency was active: 6.51 µM. For `CCOC(=O)c1ccc(-n2c(CCC(=O)O)ccc2-c2cccs2)cc1`, the Potency was inconclusive [inhibitor, partial curve]. With `CCNC(=S)N(Cc1ccco1)Cc1cc2cc3c(cc2[nH]c1=O)OCCO3` the Potency was inconclusive [inhibitor, single point]. For `O=C(CSc1ccc2ccccc2c1)Nc1ncccn1`, the activity change, negative = growth inhibition was inconclusive: -30.1% [inhibitor]. In the case of `C=C1CCN([C@@H](Cc2ccccc2)C(=O)NCc2ccc(Cl)c(Cl)c2)S(=O)(=O)c2ccccc21`, the activity change, negative = growth inhibition is reported as inconclusive: -31.9% [inhibitor]. With `CCOc1ccc(N(Cc2cc3cc(C)ccc3[nH]c2=O)C(=O)c2cccc(Cl)c2)cc1` the Potency was inconclusive [inhibitor, full curve, poor fit]. In the case of `CCc1ccc(NC(=O)C(CC)c2ccccc2)cc1` (stereo not drawn), the Potency is reported as inconclusive [inhibitor, single point]. For `Cc1ccccc1OCC(=O)Nc1ccccc1CO`, the Potency was inconclusive [inhibitor, single point]. With `NNC(=O)/C(=C\c1cccs1)NC(=O)c1ccccc1` the “activity change, negative = growth inhibition” value was inactive: -13.9%. In the case of `O=C(NC1CCCCC1)N1CCCC(c2nc(-c3ccc(S(=O)(=O)N4CCCC4)cc3)no2)C1` (stereo not drawn), the Potency is reported as inconclusive [inhibitor, partial curve]. In the case of `CSc1ncnc2c1ncn2CCCN[C@H](C)c1cccc2ccccc12`, the Potency is reported as inconclusive [inhibitor, single point]. With `Cn1cccc1C(=O)N1CCC2(CCN(C(=O)Nc3cccc(F)c3)CC2)CC1` the Potency was inconclusive [inhibitor, single point]. With `COc1cccc(CNC(=O)C2CCCN(S(=O)(=O)N3CC(C)CC(C)C3)C2)c1` (stereo not drawn) the “activity change, negative = growth inhibition” value was inactive: -6.42%. In the case of `COc1ccc(Cl)cc1C(=O)OCC(=O)c1c(N)n(C)c(=O)n(C)c1=O`, the “activity change, negative = growth inhibition” value is reported as inactive: 3.05%. In the case of `Cc1ccccc1S(=O)(=O)Cc1ccc(C(=O)NCc2ccccc2)o1`, the “activity change, negative = growth inhibition” value is reported as inactive: 5.09%. For `O=C(N[C@H](CO)[C@H](O)c1ccc([N+](=O)[O-])cc1)C(Cl)Cl`, the Potency was active: 11.6 µM [middle of 4 runs]. In the case of `O=C(Nc1ccccc1)C1=C(O)CC(c2ccoc2)CC1=Nc1ccccc1` (stereo not drawn), the Potency is reported as inconclusive [inhibitor, single point]. For `COc1ccccc1CN1CCOc2ccc(CN3CCCCC3CO)cc2C1` (stereo not drawn), the “activity change, negative = growth inhibition” value was inactive: -15.6%. For `Cc1ccc(Cc2c(-c3ccco3)nc3ccc(Br)cn23)cc1`, the Potency was inconclusive [inhibitor, single point]. In the case of `COc1cc(C(=O)NCC2CCCO2)ccc1OCc1ccc(Cl)cc1Cl` (stereo not drawn), the Potency is reported as inconclusive [inhibitor, partial curve]. In the case of `COc1ccc(NC(=O)C2CC(=O)N(Cc3ccc(C)cc3)C2)cc1S(=O)(=O)N1CCCCC1` (stereo not drawn), the Potency is reported as inconclusive [inhibitor, single point]. With `CC(=O)N1N=C(c2cccs2)CC1c1cccc([N+](=O)[O-])c1` (stereo not drawn) the Potency was inconclusive [inhibitor, single point]. With `Cc1cc(C)n(CCNC(=O)c2cc(COc3ccc4ncccc4c3)on2)n1` the Potency was active: 20.6 µM. With `CCCCn1c(CNC(=O)c2cccs2)nc2ccccc21` the Potency was inconclusive [inhibitor, single point]. For `COc1c(C)cc(Br)cc1C(=O)Nc1ccccc1C`, the Potency was inconclusive [inhibitor, single point].
On the % scale 0 is the no-effect control and ±100 the full control effect; potency means the concentration at half of the fitted maximal effect; tags describe the fitted curve by direction and shape.
